Consider 85 molecules from ChEMBL document CHEMBL4888484, “Replenishing the malaria drug discovery pipeline: Screening and hit evaluation of the MMV Hit Generation Library 1 (HGL1) against asexual blood stage Plasmodium falciparum ,using a nano luciferase reporter read-out” (2022).

The whole screen tested about 150,000 compounds, of which about 540 (0.36%) showed an effect of 50% or more. Some of the results follow.

For this experiment, the system named is Plasmodium falciparum. In words: Primary screen in NF54 nanoGlo assay, in single point, at 2uM, 72h; a lower Z score goes with more inhibition. The class given is functional, Erythrocyte. As to conditions: timepoint 72 hour.
As for `Cc1cc(NCc2cccnc2N2CCN(c3ccccc3C)CC2)nc(N)n1`, the “% Inhibition” value was -7% and the Z score worked out at 0.89.
In the case of `Cc1ncc(C(=O)NCc2nc(C(C)(C)C)no2)cn1`, the “% Inhibition” value is listed as -12% and the Z score came to 1.54.
As to `CC(C)(C)CN(Cc1ccccc1)C(=O)CCS(C)(=O)=O`, the “% Inhibition” value is 9% and the Z score is listed as -1.65.
Take `COC(=O)CN(C)C(=O)Cc1ccc(Cl)cc1Cl`: the “% Inhibition” value is recorded as -6% and the Z score amounted to 0.55.
For the molecule `C[C@@H](CNC(=O)c1cc2c(s1)CCOC2)c1nncn1C`, the “% Inhibition” value is -5% and the Z score stood at 0.79.
`CC(C)N(C)S(=O)(=O)N1CCC(CNC(=O)CCCn2cccn2)CC1`: the “% Inhibition” value was 2% and the Z score is given as -0.27.
For the molecule `CCCNC(=O)c1nc(C)c(C)nc1C(=O)Nc1ccc(Cl)cc1`, the “% Inhibition” value is recorded as -34% and the Z score is 3.97.
Taken in the same sequence, the figures for `CC(C)N(C)CC(=O)NCC1(C)CCCCC1O` (stereo not given) were -8% and 1.1.
Turning to `C#CCCC1(CCC(=O)N2CC[C@@H](Oc3cccc(Cl)c3)C2)N=N1`, the “% Inhibition” value is -10% and the Z score is on record as 1.21.
As for `Cc1ccc(C(=O)N2C[C@@H]3CC[C@H]2CN(CC(=O)N(C)C)C3)c(F)c1`, the “% Inhibition” value is listed as -2% and the Z score is 0.39.
For the molecule `O=C(CCc1ccsc1)N[C@H]1CNCCC1(F)F`, the “% Inhibition” value is given as -10% and the Z score is listed as 1.75.
On to `CC(C)(C)c1ccc(-c2noc(CCC(=O)NC[C@H]3CCCO3)n2)cc1`, for which the “% Inhibition” value is -8% and the Z score worked out at 0.93.
As to `NC(=O)[C@@H]1C[C@H](Oc2ccccc2)CN1S(=O)(=O)c1cccnc1`, the “% Inhibition” value is -7% and the Z score was determined as 0.96.
Regarding `O=S1(=O)CCC(NC[C@@H]2CCC[C@H]2O)c2cc(Br)ccc21` (stereo not given in full), the “% Inhibition” value is on record as -4% and the Z score is reported as 0.71.
Turning to `Cc1nnccc1C(=O)N1CCC[C@H]1c1ncc(Br)cn1`, the “% Inhibition” value is listed as -5% and the Z score worked out at 0.79.
The corresponding values for `Cc1ccc(CNC(=O)[C@@H]2CCCN2S(C)(=O)=O)c2cccnc12` are -6% and 0.7.
Consider `CC(C)N(Cc1ccccc1Cl)C(=O)[C@H]1CCN(C)C1`, for which the “% Inhibition” value turned out to be 2% and the Z score was -0.26.
The corresponding values for `CO[C@H]1C[C@H]2CN(C(=O)COc3cccc(C)c3)[C@@H](Cc3ccccc3)C(=O)N2C1` are -5% and 0.76.
Consider `CCc1ccc(S(=O)(=O)N[C@H]2CNC[C@@H]2OC)s1`, for which the “% Inhibition” value is listed as -4% and the Z score came to 0.76.
As to `C[C@H](NC(=O)C1(O)CCCC1)c1noc(-c2ccccc2)n1`, the “% Inhibition” value was found to be 8% and the Z score is -0.76.
As for `N#Cc1cccc(CN2CCN([C@H]3CCOC4(CCOCC4)C3)CC2)c1`, the “% Inhibition” value was -7% and the Z score amounted to 0.94.
Regarding `O=C(Cc1ccc(F)c(Br)c1)NC[C@H]1CCCNC1`, the “% Inhibition” value is -7% and the Z score stood at 1.1.
In the case of `C[C@](C#N)(NC(=O)CN1CCCCCC1)C1CC1`, the “% Inhibition” value is given as 7% and the Z score was -0.67.
As for `Cc1cc(C(=O)N2C[C@H]3CC[C@@H](C2)N(C)C3)c(C)n1C`, the “% Inhibition” value amounted to 1% and the Z score is given as -0.25.
In the case of `O=C(NCc1ccc2c(c1)CCN2C(=O)c1ccccc1)Nc1ccccc1C(F)(F)F`, the “% Inhibition” value is reported as -8% and the Z score is 1.49.
Regarding `CCOC(=O)c1ccc(NC(=O)[C@H]2C[C@@H]3CCCN3[C@]23C(=O)Nc2ccc(F)cc23)cc1`, the “% Inhibition” value was 1% and the Z score is reported as -0.16.
The corresponding values for `CC(C)c1cc(N(C)Cc2nnc(-c3ccco3)o2)n[nH]1` are -8% and 1.46.
The corresponding values for `CCc1ncc(CN(C)C(=O)c2ccc(O)c(Cl)c2)s1` are -7% and 0.8.
Regarding `CC(C)(C)NC(=O)c1ccnc(OCC2CCOCC2)c1`, the “% Inhibition” value is -13% and the Z score was found to be 2.55.
`COc1cccc2nc(C[C@H]3CN(Cc4ccccc4OC(F)(F)F)CC[C@H]3CC(=O)O)[nH]c12`: the “% Inhibition” value came out at 31% and the Z score was -3.46.
Regarding `CC(C)n1ccc(CN2C(=O)[C@@H]3CCCCN3C2=O)n1`, the “% Inhibition” value stood at 1% and the Z score is listed as -0.08.
Consider `CCC1(CC)CN(C(=O)c2ccnc(C3CCCC3)n2)C1`, for which the “% Inhibition” value is reported as -9% and the Z score was determined as 1.1.
For the molecule `O=S1(=O)[C@H](c2ccccc2)CCN1Cc1ncnn1CCF`, the “% Inhibition” value is reported as -9% and the Z score is 1.1.
Turning to `Cc1ncsc1CCN(C)CCn1cc[nH]c1=O`, the “% Inhibition” value is recorded as -15% and the Z score is on record as 3.22.
Taken in the same sequence, the figures for `CCC(C(=O)N1CCN(CC(OCc2ccc(C#N)cc2)c2cccc(N3CCCC3)c2)CC1)c1ccccc1` (stereo not given) were -14% and 1.88.
On to `O=C(Nc1cccs1)N1CCC(Oc2ccccn2)CC1`, for which the “% Inhibition” value is on record as -11% and the Z score is on record as 2.03.
With `CN(CCN(C(=O)c1ccc2ccncc2n1)C1CC1)C1CC1`, the “% Inhibition” value amounted to 0% and the Z score is 0.
For the molecule `C[C@@H](C(=O)N1CCC2(CC1)Cc1cccc(c1)Oc1cccc(c1)CCNC2=O)n1cnnn1`, the “% Inhibition” value was -14% and the Z score was 1.74.
Turning to `O=C1CN(C(=O)c2nccc3cccnc23)C2(CN1)COC2`, the “% Inhibition” value is listed as 0% and the Z score is 0.02.
With `COC(=O)NC[C@H](O)c1csc2ccccc12`, the “% Inhibition” value is recorded as -3% and the Z score is reported as 0.41.
Regarding `O=C1NCCN2CCN(Cc3c[nH]nc3C3CCCCC3)C[C@@H]12`, the “% Inhibition” value stood at 8% and the Z score was -1.03.
Take `Cc1ccc(S(=O)(=O)C[n+]2sc(N(c3ccccc3)c3ccccc3)nc2-c2ccccc2)cc1`: the “% Inhibition” value was found to be 0% and the Z score was determined as 0.04.
For `CCN(C)CC(O)CN[C@H](C)c1ccccc1Cl` (stereo not given in full), the “% Inhibition” value is -5% and the Z score came out at 0.82.
Turning to `CCC(=O)N(CC(=O)Nc1nc(-c2ccccc2)cn1-c1ccc(OC)c(OC)c1)C1CC1`, the “% Inhibition” value is recorded as -7% and the Z score turned out to be 0.83.
As for `C[C@H]1CNC(=O)CCN1C(=O)Nc1ccc(CCc2ccccn2)cc1`, the “% Inhibition” value is given as -7% and the Z score stood at 1.34.
As to `C[C@]1(C(=O)NCCCNc2ncccn2)CC1(Cl)Cl`, the “% Inhibition” value is recorded as -1% and the Z score is listed as 0.16.
Regarding `CC(C)CC(=O)Nc1ccc(N2CCCN(C(=O)CC(C)C)CC2)c(C(=O)NCc2ccc(F)cc2)c1`, the “% Inhibition” value is given as -12% and the Z score amounted to 2.1.
With `CN(CCCNC(=O)[C@@H]1Cc2ccccc2CN1C)c1ccccc1`, the “% Inhibition” value is listed as -13% and the Z score was 2.4.
On to `CCN(C)Cc1ccc(F)cc1C(=O)OC`, for which the “% Inhibition” value is -7% and the Z score came to 0.88.
`O=C(Nc1cc(Cl)cc(Cl)c1)C1[C@@H]2C=C[C@]3(O2)C(C(=O)NC2CCCCC2)N(CCN2CCCCCC2)C(=O)[C@H]13` (stereo not given in full): the “% Inhibition” value is 21% and the Z score was -3.26.
For `Cc1cc(C2CCC(C(=O)NCc3cccc(F)c3)CN2C(=O)C2CCCC2)ccc1F` (stereo not given), the “% Inhibition” value worked out at 0% and the Z score is 0.
With `CC(C)NC(=O)N(Cc1ccc(F)cc1)c1cccc(CC(=O)NCc2ccc3c(c2)OCO3)c1`, the “% Inhibition” value came to 2% and the Z score was -0.2.
The corresponding values for `Nc1nc2nc(-c3ccccc3)oc2c(=O)[nH]1` are -8% and 0.94.
As for `CC(=O)N1CC(OCC(=O)Nc2cc(F)ccc2NC(=O)c2ccccn2)C1`, the “% Inhibition” value is on record as -21% and the Z score turned out to be 3.65.
In the case of `O=S(=O)(Nc1cncnc1-c1ccccc1)c1cncc(Cl)c1`, the “% Inhibition” value was found to be 1% and the Z score is on record as -0.13.
As to `CN(CC(=O)Nc1cccc(F)c1)C(=O)c1cc(S(=O)(=O)N(C)C)ccc1N1CCCCC1`, the “% Inhibition” value is -4% and the Z score was determined as 0.39.
Regarding `Cc1noc(C)c1CN(C)CC=Cc1ccncc1`, the “% Inhibition” value is recorded as -14% and the Z score stood at 1.72.
In the case of `Nc1ccncc1-c1ccccc1OCc1cccc(F)c1`, the “% Inhibition” value was -5% and the Z score is recorded as 0.63.
On to `O=C(NCCOc1ccccc1)N(Cc1ccsc1)CC(F)(F)F`, for which the “% Inhibition” value is -12% and the Z score was determined as 1.31.
For `CCN(CC)c1ccc(C(=O)OCC(=O)N2CCCC2)cc1`, the “% Inhibition” value is recorded as -7% and the Z score was 0.99.
On to `Cc1nc(C)c(COc2ccncc2)o1`, for which the “% Inhibition” value was -11% and the Z score is reported as 1.17.
In the case of `c1ncc(CNc2ccc3scnc3c2)s1`, the “% Inhibition” value is given as -11% and the Z score was determined as 1.14.
Regarding `COC(c1ccccc1Cl)C(C)NC(=O)Cc1ccc(C)nc1` (stereo not given), the “% Inhibition” value is given as -12% and the Z score is 1.47.
Take `CC(=O)c1cccc(-c2ccc3c(cnn3CC(=O)Nc3ccnn3C)c2)c1`: the “% Inhibition” value was -12% and the Z score worked out at 1.94.
Taken in the same sequence, the figures for `COc1cccc(-c2cn3c(-c4ccccc4)c(-c4ccccc4)nc3n2CCc2ccccc2)c1` were 2% and -0.19.
On to `Cc1noc(C)c1C(=O)OCC1CCC1`, for which the “% Inhibition” value was -15% and the Z score is recorded as 2.34.
As for `Cc1cc(C2CCC2)nc(N2CCCNCC2)n1`, the “% Inhibition” value was 1% and the Z score is on record as -0.25.
Turning to `O=C(C1CCS(=O)(=O)C1)N(CC(O)c1ccc(F)cc1)C1CC1` (stereo not given), the “% Inhibition” value is -1% and the Z score turned out to be 0.08.
With `Nc1cc(Br)ccc1OC[C@H]1CCOC1`, the “% Inhibition” value is reported as -15% and the Z score came out at 1.75.
Turning to `O=C(Cc1ccccc1)N(c1ccccc1)c1ccc(N(C(=O)Cc2ccccc2)c2ccccc2)cc1`, the “% Inhibition” value is recorded as -4% and the Z score came to 0.62.
For the molecule `CN1CCCN(C(=O)c2scnc2C(C)(C)C)c2cc(F)ccc21`, the “% Inhibition” value is on record as -7% and the Z score amounted to 1.01.
On to `O=C1c2ccccc2N[C@H](c2cccs2)N1Cc1ccc2c(c1)OCO2`, for which the “% Inhibition” value is -5% and the Z score is 0.62.
As to `CN1CCOC(C(NC(=O)c2n[nH]c3c2CCC3)c2ccc(Cl)cc2)C1` (stereo not given), the “% Inhibition” value amounted to 1% and the Z score was -0.14.
In the case of `c1ccc2c(c1)nc1n2CCN(C2CCCCC2)C1`, the “% Inhibition” value is reported as -1% and the Z score stood at 0.12.
With `Cc1cc(COc2ccc(C(=O)N3CCNC[C@@H]3C)cc2Br)on1`, the “% Inhibition” value amounted to 11% and the Z score is reported as -1.36.
Taken in the same sequence, the figures for `O=C(Nc1ccc(F)cc1)c1cc(CN2CCCC2)on1` were -24% and 2.42.
In the case of `O=C(c1cc(-n2cccn2)ccc1Cl)N1C[C@H](O)[C@@H](F)C1`, the “% Inhibition” value was determined as 1% and the Z score was -0.12.
Turning to `O=C(C1CCCO1)N1CCC(OCCCc2ccccc2)C1` (stereo not given), the “% Inhibition” value is reported as -3% and the Z score is on record as 0.3.
Take `Cc1ccc2c(c1)CC[C@@H](C(=O)NCc1cc(C)nc(C)n1)O2`: the “% Inhibition” value is -15% and the Z score turned out to be 2.08.
In the case of `CC1CN(S(=O)(=O)c2cccnc2)CC(c2ccc(F)cc2)O1` (stereo not given), the “% Inhibition” value is -4% and the Z score amounted to 0.55.
For `O=C(Cc1ccccc1Cl)N1CC[C@H](CN2CCOC2=O)C1`, the “% Inhibition” value was -6% and the Z score is 0.78.
Consider `CCc1sc(C(=O)Nc2cccc(N3CCOC3=O)c2C)cc1C`, for which the “% Inhibition” value is -8% and the Z score is listed as 1.02.
Consider `COCC(=O)Nc1ccc(-c2noc([C@@H]3CCCN3CC(C)(C)C)n2)cn1`, for which the “% Inhibition” value is listed as -10% and the Z score is 1.57.
With `COC1(C(F)(F)F)CN(C(=O)Nc2ccnc(C)n2)C1`, the “% Inhibition” value is -4% and the Z score came out at 0.74.
Turning to `CCCc1nc(C(=O)N[C@H]2C[C@H](c3nnc(CO)n3C3CC3)C2)cs1`, the “% Inhibition” value is -21% and the Z score was 1.91.
